# The other results are listed elsewhere or left out. The full chains were built here from the parent and the listed change. Inactive controls read about 0.05.
# B1: TEV protease; numbered along this chain (parent)
# chain: MGESLFKGPRDYNPISSSICHLTNESDGHTTSLYGIGFGPFIITNKHLFRRNNGTLVVQSLHGVFKVKDTTTLQQHLVDGRDMIIIRMPKDFPPFPQKLKFREPQREERICLVTTNFQTKSMSSMVSDTSCTFPSGDGIFWKHWIQTKDGQCGSPLVSTRDGFIVGIHSASNFTNTNNYFTSVPKNFMELLTNQEAQQWVSGWRLNADSVLWGGHKVFMVKPEEPFQPVKEATQL
# Variants of: B1
# Test: raw area under fraction-flipped curve 0-4 h after induction (AUC4h, not background-subtracted), DNA-recorder readout of cleavage of the substrate (dimensionless); higher = more cleavage of the substrate by the protease variant
# Details: temperature: 34 °C; time window: 0-4 h after rhamnose induction
# Description: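 In vivo DNA recorder in E. coli TOP10(DE3) ΔrhaA at 34 °C. Each TEVp single-site mutant (parent TEVp 0) is paired with a single-site variant of the 7-mer TEVs (canonical ENLYFQ|S). The substrate sits between flexible linkers in a Bxb1-sfGFP-TEVs-SsrA fusion, so cleavage stabilises Bxb1 and speeds flipping of a recombination array, read by NGS. The value is the raw area under the fraction-flipped curve over 0-4 h after rhamnose induction (AUC4h), with ≥20 reads per time point. It is not background-subtracted; inactive controls average about 0.047.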
# 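Also: Bxb1 expression induced with 0.2% (w/v) L-rhamnose at OD600 near 0.5, cultures sampled hourly, flipped fraction per protease–substrate barcode pair counted by paired-end Illumina sequencing.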
Variant,area with substrate ENAYFQS,area with substrate ENCYFQS,area with substrate ENDYFQS,area with substrate ENEYFQS,area with substrate ENGYFQS,area with substrate ENPYFQS,area with substrate ENQYFQS,area with substrate ENTYFQS,area with substrate ENVYFQS,area with substrate ENWYFQS
E195S,0.0611,0.0772,0.0618,0.0565,0.0629,0.0572,0.0863,0.0816,0.0423,0.0655
E195T,0.0504,0.0626,–,–,–,–,0.0462,–,–,–
E189Y,0.0492,–,–,0.0562,–,–,–,–,–,–
E189L,0.0625,–,0.0559,0.0633,0.0543,0.058,0.0601,0.0543,–,–
A170W,0.0621,0.0595,0.057,–,–,–,0.0651,0.0589,0.0601,–
A170K,0.0533,–,0.0778,0.0523,–,–,–,–,–,–
G162N,0.0861,–,–,–,–,0.0618,–,0.0773,–,–
I164V,0.0648,–,–,–,–,–,0.0574,–,0.103,–
S158V,0.0525,–,0.0535,–,–,–,0.0642,–,0.0453,0.0441
G166E,0.0447,0.0522,0.0434,0.0569,0.0481,–,0.0468,0.0519,–,0.0441
T181K,0.0461,–,0.0554,0.0423,–,0.0426,–,–,–,–
S182C,0.0611,–,–,–,–,–,–,–,–,0.0544
S182H,0.0512,–,–,0.0569,0.0515,–,0.0547,–,0.0569,0.0485
S182E,0.069,0.056,0.0611,0.0469,0.0711,0.0714,–,–,–,–
S182F,0.0453,0.0582,–,0.0541,–,0.0571,0.0544,0.0481,0.0662,–
N206R,0.0621,–,0.0682,0.05,0.0505,–,0.064,–,–,0.003
N206C,0.077,0.0501,–,0.0622,0.0653,0.0486,0.0626,0.0575,0.0739,–
W203S,0.0515,0.0583,–,0.0676,–,0.0598,0.054,0.0531,–,0.0434
W203P,0.0599,0.0378,0.0621,0.0483,–,–,0.0617,–,–,–

# Same assay, conditions: temperature: 34 °C; time window: 0-4 h after rhamnose induction
Variant,area with substrate ENSYFQS,area with substrate ENHYFQS,area with substrate ENKYFQS,area with substrate ENMYFQS,area with substrate ENFYFQS,area with substrate ENIYFQS,area with substrate ENRYFQS,area with substrate ENNYFQS,area with substrate ENYYFQS
E195T,0.0567,–,–,–,–,–,–,–,–
E189Y,0.0624,0.0476,0.0562,0.0811,–,–,–,–,–
E189L,0.064,0.0628,–,0.0714,0.0556,0.119,–,–,–
A170W,0.0535,–,–,–,0.0559,0.0397,0.0646,–,–
A170K,0.0489,–,0.0558,–,–,–,–,–,–
G162N,–,0.0484,–,–,–,0.112,–,–,–
I164V,–,–,–,–,–,0.0773,0.0411,–,–
S158V,0.0518,–,0.0552,–,0.05,–,0.0499,0.0506,0.0574
G166E,0.0471,–,–,0.0593,–,–,–,0.0445,–
T181K,–,0.0561,–,0.0876,–,–,–,0.0201,–
S182C,0.0702,–,–,–,–,0.109,–,–,0.0633
S182H,0.0707,0.0547,–,–,–,–,–,0.0548,0.0619
S182E,0.0483,–,–,–,0.0409,–,0.0607,0.0455,–
S182F,–,–,–,–,–,–,–,0.0644,–
N206R,0.053,0.0569,0.0625,–,0.0564,0.112,0.0594,0.0604,–
N206C,0.055,–,0.0643,0.0701,–,0.101,0.054,0.0632,0.0441
W203S,0.0647,0.0554,–,–,0.0556,0.0691,0.0587,0.0611,–
W203P,0.0566,–,0.0605,–,–,0.0753,0.0553,–,0.048
